The test system of one assay is KB-3-1. Description: growth inhibition relative to DMSO control (SRB); cervical cancer cells: KB-3-1 is the parent and KB-V1 overexpresses MDR1; SRB is the sulforhodamine B stain; higher = more growth inhibition. To be noted: 1 µM; 72 h.
The next assay concerns KB-V1. The assay is described as above. The following applies: 1 µM; 72 h.

This is an account of results in the supplement of paper PMC7266297.

Several values for one entry are separate records, joined by “and”; a condition that tells them apart may be missing. Equal entries are not always repeated. Structures can show the parent of a compound that is named as a salt. The list shows a part of the results. Many values rest on one well or one pass, so single values are uncertain.
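Note: Read-out is SRB optical density at 490 nm, with the control being wells given 0.5% DMSO vehicle, and compound added one day after cells were plated.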

As for `Cc1ccc(C(=O)c2cc(O)c(O)c([N+](=O)[O-])c2)cc1` [Tolcapone], the growth inhibition in the assay with KB-3-1 and in the assay with KB-V1 was less than 0% in each case.
Regarding `CCN[C@H]1CN(CCCOC)S(=O)(=O)c2sc(S(N)(=O)=O)cc21` [Brinzolamide], the growth inhibition with KB-3-1 was less than 0%; in the assay with KB-V1, 0.327%.
The matching figures for `OCCn1cc(-c2ccc3c(c2)CC/C3=N\O)c(-c2ccncc2)n1`: 4.91% and 20.4%.
As for `NC(=O)N1CCC(CC(=O)N2CCC([C@H]3c4ncc(Br)cc4CCc4cc(Cl)cc(Br)c43)CC2)CC1` [Lonafarnib], the growth inhibition is 49.4% with KB-3-1 and 53.9% with KB-V1.
`CC(C)C[C@@H](C(=O)N[C@H](C(=O)OC1CCCC1)c1ccccc1)[C@H](O)C(=O)NO` [Tosedostat (CHR2797)]: the growth inhibition in the assay with KB-3-1 was 49.2%; in the assay on KB-V1 it was 20%.
On to `CC1=C(C(=O)OC2CCCCC2)C(c2ccc([N+](=O)[O-])cc2)C2=C(CC(C)(C)CC2=O)N1` (stereo not drawn), for which the growth inhibition is 59.6% in the assay on KB-3-1 and 19.1% in the assay with KB-V1.
In the same order, the values of `CN(C)CCC[C@@]1(c2ccc(F)cc2)OCc2cc(C#N)ccc21` [Escitalopram Oxalate] are 44.3% and 19%.
The matching figures for `Cc1nc(NC(=O)N2CCC[C@H]2C(N)=O)sc1-c1ccnc(C(C)(C)C(F)(F)F)c1`: 27.4% and 14.9%.
For `CC(C)(Oc1ccc(C2CC2(Cl)Cl)cc1)C(=O)O` (stereo not drawn) [Ciprofibrate], the growth inhibition in the assay with KB-3-1 worked out at 11.1%; in the assay on KB-V1, 12.5%.
In the same order, the values of `CCCC(CCC)C(=O)O` [Valproic acid sodium salt (Sodium valproate)] are 27.3% and 36.1%.
In the same order, the values of `CN(CCOc1ccc(CC2SC(=O)NC2=O)cc1)c1ccccn1` (stereo not drawn) [Rosiglitazone] are less than 0% and less than 0%.
In the same order, the values of `COc1c(C)c(C(=O)c2ccc(N)c(C(=O)O)c2)n2ccccc12` are less than 0% and less than 0%.
As to `CC[C@@H]1C(=O)N(C)c2cnc(Nc3ccc(C(=O)N[C@H]4CC[C@H](N5CCN(CC6CC6)CC5)CC4)cc3OC)nc2N1C(C)C` [Volasertib (BI 6727)], the figures for the growth inhibition in the assay with KB-3-1 and in the assay on KB-V1 were 86.4% and 73.8%, respectively.
In the same order, the values of `CCc1cc(Nc2nccc(-c3c(-c4ccc(OC)c(C(=O)Nc5c(F)cccc5F)c4)nc4ccccn34)n2)c(OC)cc1N1CCC(N2CCN(S(C)(=O)=O)CC2)CC1` are 39.3% and 44.7%.
In the same order, the values of `COc1cc2nc(N3CCN(C(=O)C4CCCO4)CC3)nc(N)c2cc1OC` (stereo not drawn) [Terazosin HCl] are 18.9% and 18.9%.
In the same order, the values of `CCn1c(-c2nonc2N)nc2c(C#CC(C)(C)O)ncc(OC[C@H]3CCCNC3)c21` are 53.4% and 38.9%.
Turning to `C[C@H](Oc1cc(-c2cnn(C3CCNCC3)c2)cnc1N)c1c(Cl)ccc(F)c1Cl` [(S)-crizotinib], the growth inhibition with KB-3-1 amounted to 63.7%; in the assay on KB-V1 it was 17.9%.
The matching figures for `C[C@H](NC(=O)Cc1cc(F)cc(F)c1)C(=O)N[C@H](C(=O)OC(C)(C)C)c1ccccc1`: less than 0% and 70.1%.
In the same order, the values of `O=C(Nc1ccc(S(=O)(=O)Nc2ccccc2Cl)c(Cl)c1)c1ccccn1` are 44.2% and 4.32%.
In the same order, the values of `CC(C)C[C@H](NC(=O)[C@H](Cc1ccccc1)NC(=O)c1cnccn1)B(O)O` [Bortezomib (PS-341)] are 22.9% and less than 0%.
As for `O=C(NC(NC(=S)Nc1ccc(F)c([N+](=O)[O-])c1)C(Cl)(Cl)Cl)C(c1ccccc1)c1ccccc1` (stereo not drawn), the growth inhibition with KB-3-1 and in the assay on KB-V1 was less than 0% throughout.
With `O=C(Nc1cccc(Cl)c1)Nc1ncc(CCNc2ncnc3ccsc23)s1` [SNS-314 Mesylate], the growth inhibition turned out to be 67.7% in the assay with KB-3-1 and 67.3% with KB-V1.
In the same order, the values of `Cc1cn(-c2cc(NC(=O)c3ccc(C)c(Nc4nccc(-c5cccnc5)n4)c3)cc(C(F)(F)F)c2)cn1` [Nilotinib (AMN-107)] are 68.1% and 47%.
The matching figures for `Cn1cc(C2=C(c3ccc(Cl)cc3Cl)C(=O)NC2=O)c2ccccc21`: 12.2% and 20.8%.
The matching figures for `NC1(c2ccc(-c3nc4ccn5c(=O)[nH]nc5c4cc3-c3ccccc3)cc2)CCC1`: 55.5% and 43.5%.
In the case of `CC(C)NCC(O)c1ccc(NS(C)(=O)=O)cc1` (stereo not drawn) [Sotalol], the growth inhibition was found to be 28.7% with KB-3-1 and 8.51% with KB-V1.
`CC(C)N(CCCNC(=O)Nc1ccc(C(C)(C)C)cc1)C[C@H]1O[C@@H](n2ccc3c(N)ncnc32)[C@H](O)[C@@H]1O`: the growth inhibition with KB-3-1 was < 0% and 7.63%; in the assay on KB-V1, < 0% and 19.7%.
As to `Cn1c(=O)c2c(ncn2CC(O)CO)n(C)c1=O` (stereo not drawn) [Dyphylline], the figures for the growth inhibition in the assay on KB-3-1 and in the assay with KB-V1 were 32.4% and 17.8%, respectively.
The matching figures for `C=CCNC1=C2C[C@@H](C)C[C@H](OC)[C@H](O)[C@@H](C)/C=C(\C)[C@H](OC(N)=O)[C@@H](OC)/C=C\C=C(/C)C(=O)NC(=CC1=O)C2=O` [17-AAG (Tanespimycin)]: 84.2% and 63.6%.
With `CNC[C@@H](O)c1ccc(O)c(O)c1` [L-Adrenaline], the growth inhibition with KB-3-1 is 31.3%; in the assay with KB-V1 it was 10.6%.
In the same order, the values of `CC#CCn1c(N2CCC[C@@H](N)C2)nc2c1c(=O)n(Cc1nc(C)c3ccccc3n1)c(=O)n2C` [Linagliptin] are 0.562% and 3.17%.
`COc1ccc2[nH]c([S@@+]([O-])Cc3ncc(C)c(OC)c3C)nc2c1` [Esomeprazole Sodium]: the growth inhibition was less than 0% in the assay with KB-3-1 and 25.2% in the assay with KB-V1.
The matching figures for `O=C1NC(=O)/C(=C/c2ccc3c(c2)OC(F)(F)O3)S1`: less than 0% and less than 0%.
In the same order, the values of `CS(=O)(=O)Nc1ccc([N+](=O)[O-])cc1Oc1ccccc1` [Nimesulide] are 21.1% and 21.1%.
In the same order, the values of `O=C(c1ccc(Nc2nccc(-c3cc4ccccc4s3)n2)cc1)N1CCC(N2CCCC2)CC1` [IKK-16 (IKK Inhibitor VII)] are 45% and 12.7%.
As for `CCCNC(=O)Nc1ccc(Oc2ncnc3cc(OC)c(OC)cc23)cc1Cl`, the growth inhibition in the assay with KB-3-1 is 24.8%; with KB-V1, 11.3%.
In the same order, the values of `COC(=O)C1=C(C)NC(C)=C(C(=O)OC(C)C)C1c1cccc2nonc12` (stereo not drawn) [Isradipine] are 18% and 1.7%.
In the same order, the values of `Cc1ccc(S(=O)(=O)OCC(=O)Nc2ccc(C(=O)O)c(O)c2)cc1` are 34.1% and 35.1%.
The matching figures for `CC(=O)OCC(=O)NCCCOc1cccc(CN2CCCCC2)c1` [Roxatidine Acetate HCl]: 52% and 23%.
As to `COc1cc(Nc2nc3ccccc3nc2NS(=O)(=O)c2ccc(NC(=O)c3ccc(C)c(OC)c3)cc2)cc(OC)c1`, the growth inhibition was determined as 30.5% in the assay on KB-3-1 and 15.8% in the assay on KB-V1.
The matching figures for `CC(=O)O[C@]1(C(C)=O)CC[C@H]2[C@@H]3C[C@H](C)C4=CC(=O)CC[C@]4(C)[C@H]3CC[C@@]21C` [Medroxyprogesterone acetate]: 28.4% and 6.38%.
In the same order, the values of `CC(=O)c1c(C)c2cnc(Nc3ccc(N4CCNCC4)cn3)nc2n(C2CCCC2)c1=O` are 34.9% and 48.2%.
In the same order, the values of `CCC[C@H](NC(=O)[C@@H]1[C@H]2CCC[C@H]2CN1C(=O)[C@@H](NC(=O)[C@@H](NC(=O)c1cnccn1)C1CCCCC1)C(C)(C)C)C(=O)C(=O)NC1CC1` [Telaprevir (VX-950)] are 31.7% and 10.9%.
For the molecule `COc1ccc2[nH]c([S+]([O-])Cc3ncc(C)c(OC)c3C)nc2c1` (stereo not drawn) [Omeprazole], the growth inhibition with KB-3-1 amounted to 10.4%; in the assay on KB-V1, 28.8%.
The matching figures for `CC(C)c1noc(N2CCC(COc3ccc(-c4ccc(S(C)(=O)=O)cc4)nc3)CC2)n1`: less than 0% and 51.4%.
The matching figures for `CCc1c2c(nc3ccc(OC(=O)N4CCC(N5CCCCC5)CC4)cc13)-c1cc3c(c(=O)n1C2)COC(=O)[C@]3(O)CC` [Irinotecan]: 55.2% and 44%.
Take `CC1(C)CCC(CN2CCN(c3ccc(C(=O)NS(=O)(=O)c4ccc(NCC5CCOCC5)c([N+](=O)[O-])c4)c(Oc4cnc5[nH]ccc5c4)c3)CC2)=C(c2ccc(Cl)cc2)C1`: the growth inhibition with KB-3-1 is 35.7%; with KB-V1, less than 0%.
The matching figures for `Cc1ccc(C(=O)Nc2ccc(CN3CCN(C)CC3)c(C(F)(F)F)c2)cc1C#Cc1cnc2[nH]ncc2c1`: 54.8% and 46.5%.
The matching figures for `COCCCOc1cc(C[C@@H](C[C@H](N)[C@@H](O)C[C@H](C(=O)NCC(C)(C)C(N)=O)C(C)C)C(C)C)ccc1OC` [Aliskiren Hemifumarate]: less than 0% and 51.4%.
The matching figures for `OC[C@H]1O[C@@H](c2ccc(Cl)c(Cc3ccc(O[C@H]4CCOC4)cc3)c2)[C@H](O)[C@@H](O)[C@@H]1O`: 50% and 5.56%.
`CCOC(=O)[C@H](CCc1ccccc1)N[C@@H](C)C(=O)N1Cc2cc(OC)c(OC)cc2C[C@H]1C(=O)O` [Moexipril HCl]: the growth inhibition worked out at 28.7% with KB-3-1 and 22.3% in the assay with KB-V1.
The matching figures for `CCOC(=O)Nc1cc(-c2ccc(C)c(NS(C)(=O)=O)c2)nn2c(C)nnc12` [Bromosporine]: 42% and 32.4%.
The matching figures for `Cc1ccc(C(=O)N(CCCN)[C@@H](c2oc3cc(Cl)ccc3c(=O)c2Cc2ccccc2)C(C)C)cc1`: 78% and 100%.
The matching figures for `Nc1ncnc2c1c(-c1cccc(OCc3ccccc3)c1)cn2C1CC(CN2CCCC2)C1` (stereo not drawn): 59.7% and 60.1%.
As to `CS(=O)(=O)c1ccc(C(=O)Nc2ccc(Cl)c(-c3ccccn3)c2)c(Cl)c1` [Vismodegib (GDC-0449)], the growth inhibition with KB-3-1 came out at 16.3%; in the assay with KB-V1 it was 12.4%.
In the same order, the values of `CS(=O)(=O)c1ccc(C2=C(c3ccccc3)C(=O)OC2)cc1` [Rofecoxib] are less than 0% and 1.22%.
The matching figures for `CC(C)C(=O)Nc1ccc([N+](=O)[O-])c(C(F)(F)F)c1` [Flutamide]: 47.5% and 20.3%.
The matching figures for `Cc1cccc(-c2[nH]c(C(C)(C)C)nc2-c2ccc3c(c2)OCO3)n1`: 33.7% and 62.6%.
In the case of `CC(C)c1nc(CN(C)C(=O)N[C@@H](CCN2CCOCC2)C(=O)N[C@H](CC[C@H](Cc2ccccc2)NC(=O)OCc2cncs2)Cc2ccccc2)cs1` [Cobicistat (GS-9350)], the growth inhibition was 3.97% with KB-3-1 and 0.515% in the assay on KB-V1.
In the same order, the values of `CC1(C)O[C@@H]2[C@@H](CO[C@@]3(COS(N)(=O)=O)OC(C)(C)O[C@@H]23)O1` [Topiramate] are 14.1% and 31%.
The matching figures for `COc1cccc(Nc2c(C(N)=O)cnc3c(C)cc(S(=O)(=O)c4cccc(C(=O)N(C)C)c4)cc23)c1`: 18.9% and less than 0%.
On to `COc1cc(Nc2ncc3c(n2)-c2ccc(Cl)cc2C(c2c(F)cccc2OC)=NC3)ccc1C(=O)O` [Alisertib (MLN8237)], for which the growth inhibition with KB-3-1 is 69.1%; in the assay with KB-V1 it was 89.5%.
In the same order, the values of `CCOC(=O)c1ccc(N2NC(=O)C(=Cc3ccc([N+](=O)[O-])o3)C2=O)cc1` are 19.1% and 3.19%.
Take `COc1ncc(-c2ccc3nccc(-c4ccnnc4)c3c2)cc1NS(=O)(=O)c1ccc(F)cc1F`: the results for the growth inhibition in the assay on KB-3-1 and in the assay on KB-V1 were 100% and 82.7%, respectively.
